The antibiotic and cytotoxicity screens of Wong et al. (2023)
The other results are listed elsewhere or left out.

These compounds were tested on HSkMC (human skeletal muscle cells) (assay: cytotoxicity call (relative viability < 0.9)). Settings: 10 µM.
In the case of `C[C@H](CO)N1C[C@H](C)[C@@H](CN(C)S(C)(=O)=O)OCCCC[C@H](C)Oc2ccc(N(C)C)cc2C1=O`, the cytotoxicity call was “inactive”. With `CN(C)Cc1cn(CC[C@@H]2CC[C@H](NC(=O)Cc3cccnc3)[C@H](CO)O2)nn1` the cytotoxicity call was “inactive”. `O=C1COC2(CN1)COC2` was tested, and the cytotoxicity call was “inactive”. For `CCC(=O)Nc1nn2c(C)nnc2s1`, the cytotoxicity call was “inactive”. In the case of `COCC#Cc1ccc2c(c1)O[C@H](CN(C)S(=O)(=O)c1ccc(OC)cc1)[C@@H](C)CN([C@H](C)CO)S2(=O)=O`, the cytotoxicity call was “inactive”. With `CC(C)=CCCC(C)=CCCC(C)=CCCC(C)=CCCC(C)=CCCC(C)=CCCC(C)=CCCC(C)=CCCC(C)=CCO` the cytotoxicity call was “inactive”. In the case of `CN(C)CCC(c1ccc(Cl)cc1)c1ccccn1.O=C(O)C=CC(=O)O` (stereo not given), the cytotoxicity call was “inactive”. `C[C@@H]1CN([C@@H](C)CO)C(=O)c2cccc(NC(=O)NC3CCCCC3)c2O[C@@H]1CN(C)Cc1ccc(C(=O)Nc2ccccc2N)cc1` was tested, and the cytotoxicity call was “inactive”. `O=c1[nH]c(=O)n(Cc2ccccc2)c2nc[nH]c12` was tested, and the cytotoxicity call was “inactive”. For `C[C@H]1CN([C@@H](C)CO)C(=O)c2cc(NC(=O)Cc3ccccc3)ccc2O[C@@H]1CN(C)S(C)(=O)=O`, the cytotoxicity call was “inactive”. With `Cc1noc(C)c1NC(=O)N(C)C[C@H]1Oc2ccc(NC(=O)CCCN(C)C)cc2C(=O)N([C@@H](C)CO)C[C@@H]1C` the cytotoxicity call was “inactive”. `C[C@@H]1CCCCO[C@@H](CN(C)S(=O)(=O)c2ccc(Cl)cc2)[C@@H](C)CN([C@H](C)CO)C(=O)c2cc(NC(=O)c3ccccc3)ccc2O1` was tested, and the cytotoxicity call was “inactive”. `C[C@@H]1CN([C@@H](C)CO)C(=O)c2cccc(NC(=O)c3ccc(-c4nccs4)cc3)c2O[C@H]1CN(C)S(C)(=O)=O` was tested, and the cytotoxicity call was “inactive”. With `O=C(O)CCCNC(=O)c1cccnc1` the cytotoxicity call was “inactive”. For `Nc1ccc2[nH]c(=S)sc2c1`, the cytotoxicity call was “inactive”. For `CN1CCC[C@@H](CC2c3ccccc3Sc3ccccc32)C1`, the cytotoxicity call was “inactive”. In the case of `C[C@H]1CN([C@@H](C)CO)C(=O)c2cccc(NC(=O)Nc3cccc4ccccc34)c2O[C@@H]1CN(C)C(=O)Nc1ccc2c(c1)OCO2`, the cytotoxicity call was “inactive”. In the case of `O=C(C[C@@H]1C[C@@H]2c3cc(NS(=O)(=O)c4ccccc4)ccc3O[C@@H]2[C@@H](CO)O1)NC1CCCCC1`, the cytotoxicity call was “inactive”. In the case of `Cc1ccc(S(=O)(=O)N(C)C[C@@H]2OCCCC[C@@H](C)Oc3ccc(NC(=O)Cc4ccccc4)cc3C(=O)N([C@H](C)CO)C[C@@H]2C)cc1`, the cytotoxicity call was “inactive”. In the case of `C[C@@H]1CN([C@H](C)CO)C(=O)c2cc(NS(=O)(=O)c3cccs3)ccc2O[C@@H](C)CCCCO[C@H]1CN(C)C(=O)NC1CCCCC1`, the cytotoxicity call was “inactive”. `C[C@@H]1CN([C@@H](C)CO)C(=O)c2cc(NC(=O)Nc3ccc(C(F)(F)F)cc3)ccc2O[C@@H]1CN(C)Cc1ccc(C(F)(F)F)cc1` was tested, and the cytotoxicity call was “active”. In the case of `COc1ccc(N2C[C@@H](O)Cn3c2nc2c3c(=O)[nH]c(=O)n2C)cc1`, the cytotoxicity call was “inactive”. In the case of `C[C@@H]1CN([C@@H](C)CO)C(=O)c2c(c3ccccc3n2C)-c2ccccc2CO[C@@H]1CN(C)C(=O)Nc1ccc(-c2ccccc2)cc1`, the cytotoxicity call was “inactive”. `C[C@H]1CN([C@@H](C)CO)C(=O)Cc2cc(NC(=O)Nc3ccc(C(F)(F)F)cc3)ccc2O[C@@H]1CN(C)Cc1ccc(-c2ccccc2)cc1` was tested, and the cytotoxicity call was “active”. In the case of `CC(C)[Si](C#C[Si](C(C)C)(C(C)C)C(C)C)(O[C@H](C)c1cn([C@H](C)c2ccccc2)nn1)C(C)C`, the cytotoxicity call was “inactive”. `CN(C)CC(=O)N[C@H]1CC[C@H](CCn2cc(CN(C)C)nn2)O[C@H]1CO` was tested, and the cytotoxicity call was “inactive”. For `C[C@@H]1CN([C@H](C)CO)C(=O)c2cccc(NS(=O)(=O)c3ccc(F)cc3)c2O[C@H]1CN(C)Cc1ccc(Cl)c(Cl)c1`, the cytotoxicity call was “inactive”. For `C[C@H](CO)N1C[C@H](C)[C@H](CN(C)Cc2ccncc2)Oc2ccc(NS(=O)(=O)c3cccs3)cc2C1=O`, the cytotoxicity call was “inactive”. For `C[C@@H]1CN([C@H](C)CO)C(=O)Cc2cc(NS(=O)(=O)c3ccccc3)ccc2O[C@H]1CN(C)Cc1ccc(C(=O)O)cc1`, the cytotoxicity call was “inactive”. For `C[C@@H]1CN([C@H](C)CO)C(=O)c2cccc(NS(=O)(=O)c3ccccc3)c2O[C@H]1CN(C)C(=O)Nc1cccc2ccccc12`, the cytotoxicity call was “inactive”. For `Cc1ccc(S[C@]2(C(=O)NCc3ccccc3)CC(=O)N(Cc3ccccc3Cl)[C@@H]2c2ccc(CO)cc2I)cc1`, the cytotoxicity call was “inactive”. `COc1ccc(NC(=O)Nc2ccc3c(c2)C(=O)N([C@@H](C)CO)C[C@@H](C)[C@H](CN(C)C(=O)NC(C)C)OCCCC[C@@H](C)O3)cc1` was tested, and the cytotoxicity call was “inactive”. `COc1ccccc1S(=O)(=O)N[C@@H]1C=C[C@H](CC(=O)N2CCN(C)CC2)O[C@@H]1CO` was tested, and the cytotoxicity call was “inactive”. With `COc1ccc(NC(=O)Nc2ccc3c(c2)C(=O)N([C@H](C)CO)C[C@H](C)[C@@H](CN(C)C(=O)Nc2ccc(OC)cc2)OCCCC[C@H](C)O3)cc1` the cytotoxicity call was “inactive”. In the case of `COc1ccc(C#Cc2ccc3c(c2)[C@H]2[C@H](CCN2C(=O)Nc2ccc(C(F)(F)F)cc2)[C@H](CO)N3C)cc1`, the cytotoxicity call was “inactive”. For `Cc1ccc(S(=O)(=O)N(C)C[C@H]2Oc3ccc(NS(=O)(=O)c4ccccc4)cc3C(=O)N([C@H](C)CO)C[C@@H]2C)cc1`, the cytotoxicity call was “inactive”. With `CO[C@H]1CN(C)C(=O)c2cc(NC(=O)NC(C)C)ccc2OC[C@H](C)N(Cc2ccc(-c3ccccn3)cc2)C[C@H]1C` the cytotoxicity call was “inactive”. For `C[C@@H]1CN([C@@H](C)CO)C(=O)c2c(c3ccccc3n2C)-c2ccccc2CO[C@H]1CN(C)Cc1ccc(Cl)c(Cl)c1`, the cytotoxicity call was “inactive”. With `C[C@@H]1CN([C@H](C)CO)S(=O)(=O)c2ccc(C#Cc3ccccc3F)cc2O[C@@H]1CN(C)CC1CC1` the cytotoxicity call was “inactive”. In the case of `NNC(=O)c1ccc(OC[C@@H](O)CO)cc1O`, the cytotoxicity call was “inactive”.
